# Structures can show the parent of a compound that is named as a salt. ± gives the standard deviation of the averaged measurements. The full ranking holds about 1,900 compounds; the median of “normalised cell viability (NPI; 0 = phenylarsine oxide control, 1 = DMSO control)” is about 1, and the lowest 2% start at about 0.039. Some of the results follow.
# Tested on: NCI-H1944
# Assay: normalised cell viability (NPI; 0 = phenylarsine oxide control, 1 = DMSO control) (fraction of DMSO control); NCI-H1944 is a non-small cell lung cancer line; higher = more viable cells (less compound toxicity)
# Conditions: 6 days
# [1] = glucocorticoid arm: hydrocortisone 2.75 uM co-treatment, compound 1 µM
# [2] = glucocorticoid arm: hydrocortisone 2.75 uM co-treatment, compound 5 µM
# [3] = glucocorticoid arm: hydrocortisone 2.75 uM pre-treated 2 days and continued, compound 1 µM
# [4] = glucocorticoid arm: hydrocortisone 2.75 uM pre-treated 2 days and continued, compound 5 µM
# [5] = glucocorticoid arm: vehicle, compound 1 µM
# [6] = glucocorticoid arm: vehicle, compound 5 µM
# 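Also: CTB read-out in 384-well plates, mean of triplicate wells, normalised per plate against 1 µM phenylarsine oxide and 0.1% DMSO, compounds added 24 h after seeding.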
smiles,measurement,setting,value
c1ccc(C(NCCNC(c2ccccc2)c2ccccc2)c2ccccc2)cc1,normalised cell viability,[1],1.023 ± 0.0058
same,normalised cell viability,[2],1.027 ± 0.0058
same,normalised cell viability,[3],1.01 ± 0.01
same,normalised cell viability,[4],1.05 ± 0.017
same,normalised cell viability,[5],1.007 ± 0.0058
same,normalised cell viability,[6],1.03 ± 0.01
Cc1ccc(NC(=O)c2ccc(CN3CCN(C)CC3)cc2)cc1Nc1nc(-c2cccnc2)cs1 [Masitinib (AB1010)],normalised cell viability,[1],1.04 ± 0.015
same,normalised cell viability,[2],1.05 ± 0.02
same,normalised cell viability,[3],1.03 ± 0.01
same,normalised cell viability,[4],1.05 ± 0.036
same,normalised cell viability,[5],0.9963 ± 0.0035
same,normalised cell viability,[6],0.995 ± 0.0044
COc1nc(C)nc(Cl)c1NC1=NCCN1 [Moxonidine hydrochloride],normalised cell viability,[1],0.986 ± 0.012
same,normalised cell viability,[2],0.991 ± 0.032
same,normalised cell viability,[3],0.999 ± 0.0017
same,normalised cell viability,[4],0.986 ± 0.085
same,normalised cell viability,[5],0.9973 ± 0.0031
same,normalised cell viability,[6],0.9957 ± 0.0021
NCCS(=O)(=O)O [Taurine],normalised cell viability,[1],1.001 ± 0.0078
same,normalised cell viability,[2],1.02 ± 0.015
same,normalised cell viability,[3],1.02 ± 0.025
same,normalised cell viability,[4],1.02 ± 0.015
same,normalised cell viability,[5],0.99033 ± 0.00058
same,normalised cell viability,[6],0.989 ± 0.003
COc1cc2nc(N3CCN(C(=O)c4ccco4)CC3)nc(N)c2cc1OC [Prazosin hydrochloride],normalised cell viability,[1],0.9863 ± 0.0076
same,normalised cell viability,[2],0.948 ± 0.015
same,normalised cell viability,[3],1.02 ± 0.011
same,normalised cell viability,[4],1.04 ± 0.015
same,normalised cell viability,[5],1.01 ± 0.01
same,normalised cell viability,[6],0.827 ± 0.03
N#CC(C#N)=C(N)/C(C#N)=C/c1ccc(O)cc1 [Tyrphostin AG 112],normalised cell viability,[1],1.001 ± 0.0081
same,normalised cell viability,[2],1.02 ± 0.01
same,normalised cell viability,[3],1.01 ± 0.023
same,normalised cell viability,[4],1.02 ± 0.029
same,normalised cell viability,[5],1.002 ± 0.0072
same,normalised cell viability,[6],1.001 ± 0.0085
CCN(CC)CCNC(=O)c1cc(S(C)(=O)=O)ccc1OC [Tiapride hydrochloride],normalised cell viability,[1],1 ± 0.0089
same,normalised cell viability,[2],1.01 ± 0.02
same,normalised cell viability,[3],1.03 ± 0.021
same,normalised cell viability,[4],1.005 ± 0.0081
same,normalised cell viability,[5],0.9997 ± 0.009
same,normalised cell viability,[6],0.998 ± 0.0035
O=C(CCCN1CC=C(n2c(=O)[nH]c3ccccc32)CC1)c1ccc(F)cc1 [Droperidol],normalised cell viability,[1],0.986 ± 0.023
same,normalised cell viability,[2],0.978 ± 0.015
same,normalised cell viability,[3],0.989 ± 0.002
same,normalised cell viability,[4],0.958 ± 0.013
same,normalised cell viability,[5],0.9693 ± 0.0015
same,normalised cell viability,[6],0.9743 ± 0.0059
Cc1cccc(/C=C/c2ccccc2)n1,normalised cell viability,[1],0.9943 ± 0.0055
same,normalised cell viability,[2],1.02 ± 0.011
same,normalised cell viability,[3],1.01 ± 0.027
same,normalised cell viability,[4],1.02 ± 0.016
same,normalised cell viability,[5],0.995 ± 0.005
same,normalised cell viability,[6],0.9843 ± 0.009
CCn1cc(C(=O)O)c(=O)c2ccc(C)nc21 [Nalidixic acid sodium salt],normalised cell viability,[1],0.9927 ± 0.0095
same,normalised cell viability,[2],1.01 ± 0.02
same,normalised cell viability,[3],1.005 ± 0.0087
same,normalised cell viability,[4],0.897 ± 0.14
same,normalised cell viability,[5],1.001 ± 0.0081
same,normalised cell viability,[6],1.005 ± 0.0092
O=c1[nH]c2ccccc2c2ccccc12 [6(5H)-Phenanthridinone],normalised cell viability,[1],0.982 ± 0.0078
same,normalised cell viability,[2],1.02
same,normalised cell viability,[3],0.794 ± 0.34
same,normalised cell viability,[4],1.01 ± 0.01
same,normalised cell viability,[5],0.9943 ± 0.0045
same,normalised cell viability,[6],0.9777 ± 0.0097
C#CCN(C)Cc1ccccc1 [Pargyline hydrochloride],normalised cell viability,[1],0.9987 ± 0.0023
same,normalised cell viability,[2],0.972 ± 0.015
same,normalised cell viability,[3],1.02 ± 0.021
same,normalised cell viability,[4],1 ± 0.018
same,normalised cell viability,[5],0.996 ± 0.013
same,normalised cell viability,[6],0.99 ± 0.012
CC(Cc1ccccc1)Nc1ncnc2c1ncn2C1OC(CO)C(O)C1O (stereo not drawn) [R(-)-N6-(2-Phenylisopropyl)adenosine],normalised cell viability,[1],0.998 ± 0.002
same,normalised cell viability,[2],1.01 ± 0.018
same,normalised cell viability,[3],0.9997 ± 0.0096
same,normalised cell viability,[4],1.03 ± 0.031
same,normalised cell viability,[5],1.013 ± 0.0058
same,normalised cell viability,[6],1.02 ± 0.017
"N=C(N)SCCc1cccc(CCSC(=N)N)c1 [1,3-PBIT dihydrobromide]",normalised cell viability,[1],0.9893 ± 0.0087
same,normalised cell viability,[2],0.91 ± 0.025
same,normalised cell viability,[3],1.02 ± 0.021
same,normalised cell viability,[4],0.986 ± 0.013
same,normalised cell viability,[5],0.984 ± 0.0061
same,normalised cell viability,[6],0.979 ± 0.016
O=c1cc(-c2ccc(O)cc2)oc2cc(O)cc(O)c12 [Apigenin],normalised cell viability,[1],0.9913 ± 0.0085
same,normalised cell viability,[2],1.007 ± 0.0058
same,normalised cell viability,[3],0.996 ± 0.0069
same,normalised cell viability,[4],0.989 ± 0.016
same,normalised cell viability,[5],0.999 ± 0.011
same,normalised cell viability,[6],0.994 ± 0.0044
CC(C)n1nc(-c2cc3cc(O)ccc3[nH]2)c2c(N)ncnc21,normalised cell viability,[1],0.65 ± 0.059
same,normalised cell viability,[2],0.327 ± 0.015
same,normalised cell viability,[3],0.646 ± 0.013
same,normalised cell viability,[4],0.577 ± 0.11
same,normalised cell viability,[5],0.683 ± 0.054
same,normalised cell viability,[6],0.0709 ± 0.013
NC(=O)N1c2ccccc2C=Cc2ccccc21 [Carbamazepine],normalised cell viability,[1],0.9957 ± 0.0038
same,normalised cell viability,[2],1 ± 0.017
same,normalised cell viability,[3],0.993 ± 0.0062
same,normalised cell viability,[4],1.01 ± 0.017
same,normalised cell viability,[5],0.983 ± 0.0089
same,normalised cell viability,[6],0.9943 ± 0.0045
N=C1Sc2ccccc2C2=NCCCN12,normalised cell viability,[1],1.017 ± 0.0058
same,normalised cell viability,[2],1.01 ± 0.031
same,normalised cell viability,[3],1.02 ± 0.011
same,normalised cell viability,[4],0.86 ± 0.28
same,normalised cell viability,[5],1.002 ± 0.0068
same,normalised cell viability,[6],1.02 ± 0.015
O=C(CCCCCCNC(=O)c1cnc(N(c2ccccc2)c2ccccc2)nc1)NO,normalised cell viability,[1],0.9803 ± 0.0098
same,normalised cell viability,[2],0.922 ± 0.018
same,normalised cell viability,[3],0.996 ± 0.021
same,normalised cell viability,[4],0.9343 ± 0.0021
same,normalised cell viability,[5],1.01 ± 0.01
same,normalised cell viability,[6],0.9873 ± 0.0071
O=C(CCCCCCNC(=O)c1cnc(N(c2ccccc2)c2ccccc2)nc1)NO [Rocilinostat (ACY-1215)],normalised cell viability,[1],0.9393 ± 0.0064
same,normalised cell viability,[2],0.966 ± 0.011
same,normalised cell viability,[3],0.944 ± 0.015
same,normalised cell viability,[4],0.945 ± 0.018
same,normalised cell viability,[5],0.9923 ± 0.0021
same,normalised cell viability,[6],0.918 ± 0.0096
CN(C)CCN(Cc1cccs1)c1ccccn1 [Methapyrilene hydrochloride],normalised cell viability,[1],0.99 ± 0.013
same,normalised cell viability,[2],1.01 ± 0.02
same,normalised cell viability,[3],1.003 ± 0.0058
same,normalised cell viability,[4],1.06 ± 0.076
same,normalised cell viability,[5],0.9977 ± 0.0021
same,normalised cell viability,[6],0.9973 ± 0.0031
CC(C)CC(=O)Nc1n[nH]c2c1CN(C(=O)C1CCN(C)CC1)C2(C)C,normalised cell viability,[1],0.8357 ± 0.0074
same,normalised cell viability,[2],0.369 ± 0.0055
same,normalised cell viability,[3],0.968 ± 0.0056
same,normalised cell viability,[4],0.962 ± 0.036
same,normalised cell viability,[5],0.365 ± 0.023
same,normalised cell viability,[6],0.0459 ± 0.004
CCCCCCCCCCCCCCCc1cccc(OCC)c1C(=O)Nc1ccc(Cl)c(C(F)(F)F)c1,normalised cell viability,[1],1.01 ± 0.014
same,normalised cell viability,[2],1.01 ± 0.011
same,normalised cell viability,[3],1.01 ± 0.02
same,normalised cell viability,[4],1.02 ± 0.016
same,normalised cell viability,[5],0.9997 ± 0.0097
same,normalised cell viability,[6],1 ± 0.0054
CCc1cccc(N(C)C(=N)Nc2cccc3ccccc23)c1,normalised cell viability,[1],0.999 ± 0.027
same,normalised cell viability,[2],0.918 ± 0.012
same,normalised cell viability,[3],1.006 ± 0.0069
same,normalised cell viability,[4],0.967 ± 0.013
same,normalised cell viability,[5],1.003 ± 0.0064
same,normalised cell viability,[6],1.01 ± 0.01
CC(C)NCC(O)COc1ccc(COCCOC(C)C)cc1 (configuration not stated) [Bisoprolol hemifumarate salt],normalised cell viability,[1],1.01 ± 0.01
same,normalised cell viability,[2],1.01 ± 0.016
same,normalised cell viability,[3],1.02 ± 0.011
same,normalised cell viability,[4],1.06 ± 0.07
same,normalised cell viability,[5],1.01 ± 0.01
same,normalised cell viability,[6],1.03 ± 0.017
CC(N)(C(=O)O)c1ccc(C(=O)O)cc1 (racemic) [(±)-alpha-Methyl-4-carboxyphenylglycine],normalised cell viability,[1],0.983 ± 0.013
same,normalised cell viability,[2],0.958 ± 0.014
same,normalised cell viability,[3],0.995 ± 0.025
same,normalised cell viability,[4],1.01 ± 0.06
same,normalised cell viability,[5],0.9813 ± 0.0038
same,normalised cell viability,[6],0.9883 ± 0.0096
Nc1nc(Cl)nc2c1ncn2[C@@H]1O[C@H](CO)[C@@H](O)[C@@H]1F [Clofarabine],normalised cell viability,[1],0.124 ± 0.015
same,normalised cell viability,[2],0.146 ± 0.0052
same,normalised cell viability,[3],0.341 ± 0.017
same,normalised cell viability,[4],0.302 ± 0.017
same,normalised cell viability,[5],0.0363 ± 0.0032
same,normalised cell viability,[6],0.0483 ± 0.0032

# Reference: the supplement of paper PMC8285479
